Laboratory results from the supplement of paper PMC10502849.
Counter-ions that a name gives are not always drawn. This is one part of the list. Most values come without repeats; read them as rough. Peptide text beside a SMILES is read from it. * marks the point of attachment. Cbz = O=C(OCc1ccccc1)*

Experiments:
[1] = test system: H9 teratoma-derived LAM model cells, TSC2-/-; assay: percent SyTOX+ dead cells; higher = more cytotoxic; conditions: 5 µM, treatment time 72 h, culture: 3D hyaluronic acid hydrogel
[2] = test system: H9 teratoma-derived LAM model cells, WT; assay: percent SyTOX+ dead cells; higher = more cytotoxic; conditions: 5 µM, treatment time 72 h, culture: 3D hyaluronic acid hydrogel, genotype: WT
[3] = test system: H9 teratoma-derived LAM model cells, TSC2-/-; assay: percent of cells invaded past median invasion distance of vehicle control; LAM is lymphangioleiomyomatosis; the cells come from teratomas of the human stem cell line H9; higher = more invasion; extreme values may be limits of the assay; conditions: 5 µM, treatment time 72 h, culture: 3D hyaluronic acid hydrogel
[4] = test system: H9 teratoma-derived LAM model cells, WT; assay: as above; conditions: 5 µM, treatment time 72 h, culture: 3D hyaluronic acid hydrogel, genotype: WT
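For percent SyTOX+ dead cells in this document: cells seeded atop a hyaluronic acid gel crosslinked via MMP-cleavable peptides, containing vitronectin peptides and methylcellulose, imaged live by high-content microscopy with automated analysis, one technical replicate per compound.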
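For percent of cells invaded past median invasion distance of vehicle control in this document: live cells imaged by high content microscopy and scored with in-house automated image analysis, one technical replicate per compound in each genotype and rapamycin condition.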

Compound	percent SyTOX+ dead cells ([1]; rapamycin 0 nM) [%]	percent SyTOX+ dead cells ([1]; rapamycin 20 nM) [%]	percent SyTOX+ dead cells ([2]; rapamycin 0 nM) [%]	percent SyTOX+ dead cells ([2]; rapamycin 20 nM) [%]	percent ([3]; rapamycin 0 nM) [%]	percent ([3]; rapamycin 20 nM) [%]	percent ([4]; rapamycin 0 nM) [%]	percent ([4]; rapamycin 20 nM) [%]
NC1(C(=O)N[C@@H](CCO)c2ccc(Cl)cc2)CCN(c2ncnc3[nH]ccc23)CC1	2.84	8.24	14.7	9.96	33.2	17.6	30.4	6.13
COc1cc([C@@H]2c3cc4c(cc3[C@@H](O[C@@H]3O[C@@H]5CO[C@@H](c6cccs6)O[C@H]5[C@H](O)[C@H]3O)[C@H]3COC(=O)[C@H]23)OCO4)cc(OC)c1O [Teniposide; VM-26; Vumon; Podophyllotoxins]	7.75	9.52	7.2	10	46.8	34.8	33.1	35.6
O=[N+]([O-])c1ccc(-c2nc(-c3ccc(F)cc3)c(-c3ccncc3)[nH]2)cc1	12.6	6.74	8.65	13.5	23.7	19.1	21.6	9.93
CS(=O)(=O)N1CCN(Cc2cc3nc(-c4cccc5[nH]ncc45)nc(N4CCOCC4)c3s2)CC1 [GDC-0941 bismesylate, RG-7321, Pictilisib]	22.6	27.3	20.2	39.8	11.6	14.1	1.06	2.15
O=C1NC(=O)/C(=C\c2ccc3nccnc3c2)S1	10.4	4.86	18.9	20.7	61.5	30.6	58.3	23
C=CC(=O)Nc1cc2c(Nc3ccc(F)c(Cl)c3)ncnc2cc1OCCCN1CCOCC1	30.6	39.1	68.8	62.3	0	0	0	1.64
CNC(=O)Nc1ccc(-c2nc(N3CC4CCC(C3)O4)c3cnn(C4CCC5(CC4)OCCO5)c3n2)cc1	2.6	1.69	12.7	10.1	63.2	60.2	36.4	45.1
CC(=O)c1c(C)c2cnc(Nc3ccc(N4CCNCC4)cn3)nc2n(C2CCCC2)c1=O	12.9	7.41	13	10.4	21.1	13	6.95	14.5
c1ccc(-c2n[nH]c3c2oc2ccccc23)cc1	9.76	14.6	23.9	15.6	23.6	27.3	1.41	2.75
Oc1cccc(-c2nc(N3CCOCC3)c3oc4ncccc4c3n2)c1	14.8	13.2	27.4	20.7	7.81	29.7	18.6	16.4
O=C(/C=C/c1ccc(CN(CCO)CCc2c[nH]c3ccccc23)cc1)NO [LAQ824, LAQ-824, NVP-LAQ-824, Dacinostat]	36.5	23.6	28.6	5.7	5.03	2.95	0	0.26
C=CC(=O)Nc1cccc(Sc2nc(Nc3ccc(N4CCN(C)CC4)cc3)ncc2Cl)c1	49.2	28.3	56.3	29	38.9	13.3	5.26	3.82
CCOc1cc2ncc(C#N)c(Nc3ccc(OCc4ccccn4)c(Cl)c3)c2cc1NC(=O)/C=C/CN(C)C [Neratinib, HKI-272, CPD-820]	5.46	9.62	28.5	33.9	80.2	99.6	35.4	45.2
COc1ccc(Cl)cc1NC(=O)Nc1cc(C)nc2ccccc12	11.9	11.4	11.8	11.9	67.3	61.4	44.1	43
Cc1cc(C(=O)N2CCN(c3cccc(Cl)c3)CC2)n(-c2ccccc2)n1	25	41.6	30.9	26.2	0	10.1	0	10
NC(=O)Nc1sc(-c2ccc(F)cc2)cc1C(N)=O	5.93	20	43.1	22.3	22.9	23.6	0	6.25
O=c1[nH]ccc2c(O)cccc12 [1,5-Isoquinolinediol, IQD]	19.1	10.8	9.76	10.6	51.8	32.1	51.5	33.9
Cn1cc(C2=C(c3ccc(Cl)cc3Cl)C(=O)NC2=O)c2ccccc21	41.5	38.4	36.4	32.7	50.3	21.8	17.2	19.4
CC[C@H](C)n1cc(C)c2c(C(=O)NCc3c(C)cc(C)[nH]c3=O)cc(-c3ccc(N4CCNCC4)nc3)cc21	11	9.72	17.3	17.8	80.6	77.8	74.2	67.3
O=C1NCCc2[nH]c(-c3ccncc3)cc21	12.1	12.8	18.9	15.5	5.26	8.94	1.8	5.16
CC(C)c1cnn2c(NCc3ccccc3)cc(NCCCCCCN)nc12 [BS-181 hydrochloride]	4.44	0.74	14.4	9.82	82.9	84.9	74.2	46.3
CC1(C)NC(=O)N(c2ccc([N+](=O)[O-])c(C(F)(F)F)c2)C1=O	12.2	9.54	10.8	9.14	48.4	41.5	54.5	48.1

Compound	percent SyTOX+ dead cells ([1]; rapamycin 0 nM) [%]	percent SyTOX+ dead cells ([1]; rapamycin 20 nM) [%]	percent SyTOX+ dead cells ([2]; rapamycin 0 nM) [%]	percent SyTOX+ dead cells ([2]; rapamycin 20 nM) [%]	percent ([3]; rapamycin 0 nM) [%]	percent ([3]; rapamycin 20 nM) [%]	percent ([4]; rapamycin 0 nM) [%]	percent ([4]; rapamycin 20 nM) [%]
COc1cc2nccc(Oc3ccc(NC(=O)Nc4cc(C)on4)c(Cl)c3)c2cc1OC [AV951, KRN951, Tivozanib]	34.3	35.9	66.9	60.8	39.4	12.5	0.57	1.18
O=C(c1ccc(/C=C/c2n[nH]c3ccccc23)cc1)N1CCNCC1	10.1	15.7	30.1	24.4	71.9	12.9	7.53	4.44
C[C@]1(c2nc3c(C(N)=O)cccc3[nH]2)CCCN1	14.1	12.1	12.1	13.7	24.9	26.7	64.2	68.4
CNC(=O)c1nn(C)c2c1C(C)(C)Cc1cnc(Nc3ccc(N4CCN(C)CC4)cc3)nc1-2	67.6	38.7	82.1	64.3	0	0	0	0
CC(C)C[C@@H](C=O)NC(=O)[C@H](CC(C)C)NC(=O)[C@H](CC(C)C)NC(=O)OCc1ccccc1 (Cbz-Leu-Leu-Leu-aldehyde)	67.3	69.7	63.9	53.6	2.44	2.53	14.2	10.5
CCN(CCO)CCCOc1ccc2c(Nc3cc(CC(=O)Nc4cccc(F)c4)[nH]n3)ncnc2c1 [AZD-1152-HQPA, Barasertib]	19.9	11.3	21.2	14.7	64	27.8	41.5	27.2
Nc1cccc(-c2cc3c(Oc4cccc(O)c4)ncnc3[nH]2)c1	19.1	20.7	47.8	41.2	0	0	0	0
O=C(c1cc(Cc2n[nH]c(=O)c3ccccc23)ccc1F)N1CCN(C(=O)C2CC2)CC1	17.2	18.6	16.4	12.4	21.9	22.2	59.4	65.4
Nc1cc(C(F)(F)F)c(-c2cc(N3CCOCC3)nc(N3CCOCC3)n2)cn1	29.6	23.6	44.4	40.4	0.93	45.1	5.33	14
Cn1cc(-c2cnn3c(N)c(Br)c([C@@H]4CCCNC4)nc23)cn1	15.6	7.79	23.7	13.8	70.9	40.3	25.4	16
COc1cc2c(Oc3ccc4[nH]c(C)cc4c3F)ncnc2cc1OCCCN1CCCC1 [Cediranib, AZD-2171, Recentin]	15.6	10.9	24.2	12.2	40.9	27.9	19	26
CS(=O)(=O)N1CCN(Cc2cc3nc(-c4cccc5[nH]ncc45)nc(N4CCOCC4)c3s2)CC1	38.8	37.3	74.7	69.3	10.5	8.29	0	0
COc1cccc2cc(-c3nc([C@H]4CC[C@H](C(=O)O)CC4)n4ncnc(N)c34)[nH]c12 [OSI-027 hydrochloride]	2.82	2.03	16.3	10.8	55.4	90.2	46.7	65.3
O=C(O)C(=O)O.[NH-]C1CCCCC1[NH-].[Pt+2] (configuration not stated) [Oxaliplatin, Eloxatin]	11.4	8.88	13	7.55	53.1	29	20	18.9
Nc1cc(F)ccc1NC(=O)c1ccc(CNC(=O)/C=C/c2cccnc2)cc1	12.3	15.5	16.4	15.1	54.3	37.6	56.3	59
CC1(C)CCC(CN2CCN(c3ccc(C(=O)NS(=O)(=O)c4ccc(NCC5CCOCC5)c([N+](=O)[O-])c4)c(Oc4cnc5[nH]ccc5c4)c3)CC2)=C(c2ccc(Cl)cc2)C1	8.72	11.6	9.63	8.91	46.3	32.3	37.7	43.6
Cc1cn(-c2cc(NC(=O)c3ccc(C)c(Nc4nccc(-c5cccnc5)n4)c3)cc(C(F)(F)F)c2)cn1 [Nilotinib, Tasigna, AMN-107]	7.1	5.1	16.2	10.8	42.3	35.7	5.71	7.18
O=C1NC(=O)/C(=C/c2ccc(-c3ccc(F)cc3O)o2)S1	45.7	24.6	25.1	28.9	11	5.03	14.2	8.59
CS(=O)(=O)c1cccc(CNc2nc(Nc3ccc4c(c3)CCC(=O)N4)ncc2C(F)(F)F)c1	16.1	19.4	40.7	27.4	4.24	6.8	1.16	1.89
Cn1c(C2=C(c3c4n(c5ccccc35)CCC(CN)C4)C(=O)NC2=O)cc2ccccc21 (configuration not stated) [Bisindoylmaleimide X, HCl salt]	96	94.5	94.2	92	30.3	34.1	7.03	16.9
Oc1ccc(-c2nc(-c3ccc(F)cc3)c(-c3ccncc3)[nH]2)cc1	15.8	5.28	10.6	18.6	16.2	31.7	38.2	29.2
Cc1[nH]c(/C=C2\C(=O)Nc3ccccc32)c(C)c1CCC(=O)O [SU-6668, TSU-68, Orantinib]	55.6	56	51.8	55.3	33.1	10.7	0.72	0
